According to the supplement of paper PMC4604168 (melanoma cell lines):
The list shows a part of the results. Single values are uncertain, as repeats are few or missing.

Experiments:
Assay in all cases: cell count relative to DMSO control; melanoma cells; higher = more viable cells
Conditions in all cases: library dose: standard library concentration; 72 h
G361 = test system: G361
IPC-298 = test system: IPC-298
IST-MEL1 = test system: IST-MEL1
LB2518-MEL = test system: LB2518-MEL
LOXIMVI = test system: LOXIMVI
MEL-HO = test system: MEL-HO
MZ2-MEL = test system: MZ2-MEL
MeWo = test system: MeWo
RPMI7951 = test system: RPMI7951
RVH-421 = test system: RVH-421
SkMel28 = test system: SkMel28
SkMel2 = test system: SkMel2
SkMel30 = test system: SkMel30
SkMel5 = test system: SkMel5
UACC257 = test system: UACC257
UACC62 = test system: UACC62
WM115 = test system: WM115
WM1716 = test system: WM1716
WM3526 = test system: WM3526
WM1745 = test system: WM1745
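Further: cells treated in 1,536-well plates, then fixed and DAPI-stained, with nuclei counted from automated high-throughput microscope images.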

SMILES | cell count (G361) | cell count (IPC-298) | cell count (IST-MEL1) | cell count (LB2518-MEL) | cell count (LOXIMVI) | cell count (MEL-HO) | cell count (MZ2-MEL) | cell count (MeWo) | cell count (RPMI7951) | cell count (RVH-421) | cell count (SkMel28) | cell count (SkMel2) | cell count (SkMel30) | cell count (SkMel5) | cell count (UACC257) | cell count (UACC62) | cell count (WM115) | cell count (WM1716) | cell count (WM3526) | cell count (WM1745)
Clc1ccc(Nc2nnc(Cc3ccncc3)c3ccccc23)cc1 [vatalanib] + Cn1cc(/C=C2\C(=O)Nc3cccnc32)c2ccccc21 [GW441756] (first compound 10 µM, partner dose 2 µM) | 76.6% | 65.7% | 81.6% | 67% | 83.2% | 65.2% | 64% | 60.6% | 71.1% | 86.9% | 67.5% | 77% | 75.9% | 65.1% | 46.9% | 72.9% | 90.4% | 109% | 79.1% | –
OCc1c[nH]c2ccccc12 [Indole-3-carbinol] + COc1ccc(COc2ccc(Cc3cnc(N)nc3N)cc2OC)cc1 [GW2580] (first compound 4 µM, partner dose 5 µM) | 108% | 88.5% | 85.9% | 92.9% | 97.2% | 93.6% | 86.5% | 77.8% | 93.6% | 80.9% | 98.2% | 106% | 81.6% | 78.5% | 80.7% | 91.1% | 96.6% | 97.6% | 116% | –
Clc1ccc(Nc2nnc(Cc3ccncc3)c3ccccc23)cc1 [vatalanib] + CCc1ccc(CCOc2ccc(CC3SC(=O)NC3=O)cc2)nc1 [pioglitazone] (first compound 10 µM, partner dose 10 µM) | 66.4% | 69.7% | 78.4% | 99.6% | 90.3% | 57.5% | 60.5% | 58.8% | 77.7% | 79.2% | 69.2% | 75.3% | 94.1% | 78% | 67.3% | 74% | 81.9% | 76.2% | 79.3% | –
Clc1ccc(Nc2nnc(Cc3ccncc3)c3ccccc23)cc1 [vatalanib] + Oc1nc(-c2ccc(C(F)(F)F)cc2)nc2c1CSCC2 [XAV939] (first compound 10 µM, partner dose 10 µM) | 68.7% | 78.9% | 88.6% | 64.1% | 85.9% | 55.1% | 64.1% | 57.5% | 61.3% | 66.6% | 72.5% | 74% | 106% | 65.8% | 80.1% | 78.8% | 92.1% | 66.3% | 76.8% | –
OCc1c[nH]c2ccccc12 [Indole-3-carbinol] + Oc1cc(-c2nc(-c3ccccc3)[nH]c2-c2ccncc2)ccc1Cl [L779450] (first compound 4 µM, partner dose 1 µM) | 78.5% | 86.8% | 84.5% | 87.7% | 109% | 91.6% | 109% | 79.5% | 109% | 72.2% | 49.9% | 31.9% | 86.3% | 44.1% | 91.8% | 57.1% | 45.8% | 73.8% | 50.7% | –
OCc1c[nH]c2ccccc12 [Indole-3-carbinol] + CCCCCCCCCCCC1=C(O)C(=O)C=C(O)C1=O [Embelin] (first compound 4 µM, partner dose 6 µM) | 7.17% | 46% | 53.4% | 27.3% | 46.6% | 53.1% | 52.8% | 101% | 87.2% | 46.5% | 29.5% | 52.5% | 96% | 85.1% | 89.1% | 84.1% | 85.2% | 80% | 104% | –
OCc1c[nH]c2ccccc12 [Indole-3-carbinol] + N#Cc1c(O)c2c(-c3ccc(-c4ccccc4O)cc3)csc2[nH]c1=O [A769662] (first compound 4 µM, partner dose 10 µM) | 104% | 103% | 88.6% | 103% | 91.7% | 100% | 117% | 98.8% | 102% | 113% | 97.5% | 118% | 123% | 98.7% | 92% | 93% | 113% | 87.3% | 107% | –
OCc1c[nH]c2ccccc12 [Indole-3-carbinol] + COC(=O)c1sccc1S(=O)(=O)Nc1ccc(Nc2ccccc2)cc1OC [GSK0660] (first compound 4 µM, partner dose 5 µM) | 104% | 116% | 120% | 113% | 109% | 117% | 99% | 113% | 152% | 126% | 79% | 106% | 103% | 117% | 106% | 89.6% | 110% | 120% | 119% | –
OCc1c[nH]c2ccccc12 [Indole-3-carbinol] + NCC(=O)Nc1ccc(-n2nc(C(F)(F)F)cc2-c2ccc3c(ccc4ccccc43)c2)cc1 [OSU03012] (first compound 4 µM, partner dose 5 µM) | 78.5% | 69.8% | 88.6% | – | 80.9% | 72.5% | – | 88.8% | 85.7% | 101% | 19.4% | – | 45.9% | 38.2% | 72.6% | 73.3% | 91.4% | 87.7% | 47.8% | 79.3%
C#Cc1cccc(Nc2ncnc3cc(OCCOC)c(OCCOC)cc23)c1 [erlotinib] + COc1ccc(Cl)c(Nc2nc3ccccc3nc2NS(=O)(=O)c2cccc(NC(=O)C(C)(C)N)c2)c1 [XL147] (first compound 4 µM, partner dose 4 µM) | 75.6% | 61.5% | 78.4% | – | 118% | 80.3% | – | 70% | 95% | 77.7% | 64% | 87.7% | 66.8% | 54.7% | 90.3% | 53.4% | 77.9% | 83.7% | 68.5% | 60.3%
OCc1c[nH]c2ccccc12 [Indole-3-carbinol] + O=C1NC(=O)/C(=C/c2ccc(-c3ccc(F)cc3O)o2)S1 [AS252424] (first compound 4 µM, partner dose 5 µM) | 77.5% | 79% | 90% | 79.4% | 106% | 74.3% | 85.1% | 84.1% | 89.9% | 41.7% | 71.9% | 75.9% | 83.1% | 70.1% | 88.3% | 91.9% | 92.3% | 133% | 83.4% | –
OCc1c[nH]c2ccccc12 [Indole-3-carbinol] + O=S(=O)(c1ccccc1)N(CC(F)(F)F)c1ccc(C(O)(C(F)(F)F)C(F)(F)F)cc1 [T0901317] (first compound 4 µM, partner dose 7 µM) | 77.6% | 103% | 92.1% | 105% | 102% | 92.6% | 98.3% | 88.3% | 131% | 126% | 97.2% | 98.3% | 103% | 83.1% | 83.3% | 77.3% | 97.5% | 91% | 106% | –
Clc1ccc(Nc2nnc(Cc3ccncc3)c3ccccc23)cc1 [vatalanib] + Cc1cc([N+](=O)[O-])ccc1NS(=O)(=O)c1cc(Cl)ccc1Cl [FH535] (first compound 10 µM, partner dose 5 µM) | 23.8% | 46.5% | 51.3% | 79.4% | 60.4% | 33.7% | 59.9% | 71.4% | 62.2% | 41.5% | 53.5% | 70.1% | 89.8% | 55.5% | 58.7% | 112% | 89.7% | 85.8% | 88.3% | –
O=C(CCCCCCC(=O)Nc1ccccc1)NO [vorinostat] + OCCn1cc(-c2cnc3nnn(Cc4ccc5ncccc5c4)c3n2)cn1 [PF04217903] (first compound 0.4 µM, partner dose 5 µM) | 80.3% | 92.4% | 93.2% | – | 71.6% | 92.8% | – | 92.3% | 63.2% | 92.1% | 79.7% | 89.6% | 93.3% | 91% | 62.5% | 82.4% | 102% | 102% | 69.7% | 96.9%
